Results on two molecules are retold here after publication PMC10516938, “Conformational dynamics of cohesin/Scc2 loading complex are regulated by Smc3 acetylation and ATP binding” (Nature Communications, 2023).

One assay concerns the target T1, Scc1-PK (S. cerevisiae) (UniProt Q12158).
T1 sequence: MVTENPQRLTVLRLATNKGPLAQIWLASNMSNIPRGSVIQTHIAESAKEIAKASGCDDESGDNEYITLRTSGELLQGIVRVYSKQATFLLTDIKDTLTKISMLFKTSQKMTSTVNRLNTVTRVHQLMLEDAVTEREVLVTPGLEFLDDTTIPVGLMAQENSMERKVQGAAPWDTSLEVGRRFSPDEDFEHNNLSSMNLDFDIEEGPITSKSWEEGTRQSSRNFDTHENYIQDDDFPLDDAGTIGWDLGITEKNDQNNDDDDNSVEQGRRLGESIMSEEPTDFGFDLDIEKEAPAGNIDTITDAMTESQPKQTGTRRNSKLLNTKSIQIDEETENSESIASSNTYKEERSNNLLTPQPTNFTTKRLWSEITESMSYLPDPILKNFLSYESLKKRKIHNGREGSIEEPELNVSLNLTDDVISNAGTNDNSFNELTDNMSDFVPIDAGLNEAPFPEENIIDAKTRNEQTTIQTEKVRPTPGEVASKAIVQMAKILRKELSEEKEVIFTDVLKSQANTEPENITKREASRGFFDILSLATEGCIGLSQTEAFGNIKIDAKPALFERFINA
Put plainly: co-IP; Scc1-PK immunoprecipitated with anti-PK from whole-cell extracts of cross-linker-treated yeast cells (exponentially grown or late G1 arrested); co-precipitated Smc3-HA, Smc1-Myc or Scc2-FLAG detected by western blot.

Assay [1] concerns the target T2, Smc1 E1102C (S. cerevisiae) (UniProt P32908).
T2 sequence: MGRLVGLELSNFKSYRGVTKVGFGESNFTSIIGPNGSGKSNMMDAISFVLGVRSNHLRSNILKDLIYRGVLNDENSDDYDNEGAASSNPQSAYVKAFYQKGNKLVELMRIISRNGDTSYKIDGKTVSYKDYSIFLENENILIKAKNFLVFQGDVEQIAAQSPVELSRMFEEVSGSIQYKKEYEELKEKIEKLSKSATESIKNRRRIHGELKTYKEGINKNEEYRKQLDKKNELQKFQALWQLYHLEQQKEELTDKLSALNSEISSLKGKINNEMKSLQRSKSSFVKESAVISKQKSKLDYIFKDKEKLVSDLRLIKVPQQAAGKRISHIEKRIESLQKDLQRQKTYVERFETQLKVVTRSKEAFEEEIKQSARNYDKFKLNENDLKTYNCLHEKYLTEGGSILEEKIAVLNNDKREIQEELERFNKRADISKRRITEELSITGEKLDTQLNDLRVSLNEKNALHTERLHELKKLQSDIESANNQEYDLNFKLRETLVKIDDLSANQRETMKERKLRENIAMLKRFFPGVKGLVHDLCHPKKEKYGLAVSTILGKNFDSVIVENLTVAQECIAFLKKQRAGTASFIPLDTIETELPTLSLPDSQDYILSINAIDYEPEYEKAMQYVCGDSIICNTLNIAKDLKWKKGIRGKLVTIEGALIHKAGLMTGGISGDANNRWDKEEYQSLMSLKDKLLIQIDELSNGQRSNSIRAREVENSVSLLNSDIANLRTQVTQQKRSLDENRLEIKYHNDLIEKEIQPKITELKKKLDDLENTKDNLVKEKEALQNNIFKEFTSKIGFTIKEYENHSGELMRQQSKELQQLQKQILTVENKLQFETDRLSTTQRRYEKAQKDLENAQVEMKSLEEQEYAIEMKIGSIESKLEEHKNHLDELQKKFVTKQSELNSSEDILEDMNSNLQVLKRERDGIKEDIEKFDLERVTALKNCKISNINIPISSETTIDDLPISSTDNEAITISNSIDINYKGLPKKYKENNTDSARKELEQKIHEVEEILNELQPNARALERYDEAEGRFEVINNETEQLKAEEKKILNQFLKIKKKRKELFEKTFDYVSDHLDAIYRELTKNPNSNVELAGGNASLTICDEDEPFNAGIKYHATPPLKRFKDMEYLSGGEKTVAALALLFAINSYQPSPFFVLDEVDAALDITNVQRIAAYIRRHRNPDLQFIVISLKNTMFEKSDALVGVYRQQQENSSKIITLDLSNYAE
Put plainly: cross-linking; in vivo BMOE cross-link of cysteine pairs in exponentially grown yeast cells (on ice, 6 min); Scc1-PK immunoprecipitated, western blot.

The target in assay [2] is T3, Smc3 Q67C (S. cerevisiae) (UniProt P47037).
T3 sequence: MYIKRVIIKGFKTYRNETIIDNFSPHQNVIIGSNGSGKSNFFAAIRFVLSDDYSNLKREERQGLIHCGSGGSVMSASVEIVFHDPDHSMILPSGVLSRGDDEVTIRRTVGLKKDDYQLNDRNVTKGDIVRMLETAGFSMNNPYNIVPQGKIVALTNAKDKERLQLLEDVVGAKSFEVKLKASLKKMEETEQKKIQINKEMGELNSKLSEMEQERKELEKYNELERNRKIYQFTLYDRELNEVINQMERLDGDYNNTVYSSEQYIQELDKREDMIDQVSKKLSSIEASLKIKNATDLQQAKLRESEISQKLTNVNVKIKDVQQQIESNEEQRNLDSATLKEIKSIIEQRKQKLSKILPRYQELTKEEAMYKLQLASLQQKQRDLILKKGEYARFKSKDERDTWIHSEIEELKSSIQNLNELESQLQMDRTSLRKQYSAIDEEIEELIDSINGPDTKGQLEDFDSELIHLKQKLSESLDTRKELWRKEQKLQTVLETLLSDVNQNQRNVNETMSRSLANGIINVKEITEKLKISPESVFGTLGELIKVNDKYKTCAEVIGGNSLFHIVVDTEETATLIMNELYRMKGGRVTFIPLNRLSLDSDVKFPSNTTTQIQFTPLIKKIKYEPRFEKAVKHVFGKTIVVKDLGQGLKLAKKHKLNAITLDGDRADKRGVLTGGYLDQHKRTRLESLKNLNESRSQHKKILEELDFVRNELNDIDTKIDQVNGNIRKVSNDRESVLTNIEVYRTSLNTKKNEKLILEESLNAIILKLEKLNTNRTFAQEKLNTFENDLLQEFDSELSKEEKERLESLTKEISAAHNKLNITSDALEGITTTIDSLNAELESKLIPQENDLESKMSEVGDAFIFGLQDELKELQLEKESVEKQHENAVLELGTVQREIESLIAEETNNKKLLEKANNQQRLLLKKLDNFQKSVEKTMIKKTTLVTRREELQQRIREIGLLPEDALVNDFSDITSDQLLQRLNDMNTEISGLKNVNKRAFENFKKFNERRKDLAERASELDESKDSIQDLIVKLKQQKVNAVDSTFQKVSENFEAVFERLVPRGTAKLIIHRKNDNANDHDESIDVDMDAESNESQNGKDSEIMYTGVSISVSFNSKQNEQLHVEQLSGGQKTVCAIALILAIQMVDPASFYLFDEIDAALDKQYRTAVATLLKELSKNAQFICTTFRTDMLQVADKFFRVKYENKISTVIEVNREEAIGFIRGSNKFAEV
The assay is described as above.

Results are given in words; binding and its absence hold for the method and conditions named. Binding seen in cells or lysates may run through a third protein. Some results given as binding are weak or reduced against the parent protein; the word gives no strength.

B1: Scc2 T1175C T1281C (protein, UniProt Q04002 1-1493)
chain: MSYPGKDKNIPGRIIEALEDLPLSYLVPKDGLAALVNAPMRVSLPFDKTIFTSADDGRDVNINVLGTANSTTSSIKNEAEKERLVFKRPSNFTSSANSVDYVPTNFLEGLSPLAQSVLSTHKGLNDSINIEKKSEIVSRPEAKHKLESVTSNAGNLSFNDNSSNKKTKTSTGVTMTQANLAEQYLNDLKNILDIVGFDQNSAEIGNIEYWLQLPNKKFVLTTNCLTKLQMTIKNITDNPQLSNSIEITWLLRLLDVMVCNIKFSKSSLKMGLDDSMLRYIALLSTIVLFNIFLLGKNDSNLHRESYIMEPVNFLSDLIESLKILTIEYGSLKIEFDTFQEALELLPKYIRNGPFLDDNVTAKLVYIFSDLLMNNDIEATTNIQFQSFWDNVKRISSDILVSLFGSFDQQRGFIIEELLSHIEKLPTKRIQKKLRKVGNQNIYITDFTFTLMSMLENINCYSFCNQMKDIAPENIDLLKNEYKKQEEFLFNIVEHINDTILERFFKNPSALRYVIDNFVQDLLLLISSPQWPVTEKILSSLLKRLLSVYSPSMQVSANIETICLQLIGNIGSTIFDIKCSTRDHEDNNLIKMINYPETLPHFFKSFEECIAYNETIKCRRSATRFLWNLRLGTILILEEYTKDAKEQIITVDNELKKILEQIKDGGLGPELENREADFSTIKLDYFSILHAFELLNLYDPYLKLILSLLAKDKIKLRSTAIKCLSMLASKDKVILSNPMVKETIHRRLNDSSASVKDAILDLVSINSSYFEFYQQINNNYNDDSIMVRKHVLRINEKMYDETNDIVTKVYVIARILMKIEDEEDNIIDMARLILLNRWILKVHEVLDQPEKLKEISSSVLLVMSRVAIMNEKCSQLFDLFLNFYLLNKEAHSKEAYDKITHVLTILTDFLVQKIVELNSDDTNEKNSIVDKQNFLNLLAKFADSTVSFLTKDHITALYPYMVSDEKSDFHYYILQVFRCTFEKLANFKQKFLYDLETTLLSRLPKMNVREIDEAMPLIWSVATHRHDTARVAKACSSCLSHLHPYINKANNEEAAIVVDGKLQRLIYLSTGFARFCFPKPSNDKIAFLQEGETLYEHITKCLLVLSKDKITHVIRRVAVKNLTKLCGNHPKLFNSRHVLHLLDKEFQSDQLDIKLVILESLYDLFLLEERKSVRNCGVNSTLSSNSILKKKLLKTNRVEFANDGVCSALATRFLDNILQLCLLRDLKNSLVAIRLLKLILKFGYTNPSHSIPTVIALFASTSQYIRHVAYELLEDLFEKYECLVFSSLSRGVTKAIHYSIHTDEKYYYKHDHFLSLLEKLCGTGKKNGPKFFKVLKRIMQSYLDDITDLTSTNSSVQKSIFVLCTNISNITFVSQYDLVSLLKTIDLTTDRLKEVIMDEIGDNVSSLSVSEEKLSGIILIQLSLQDLGTYLLHLYGLRDDVLLLDIVEESELKNKQLPAKKPDISKFSAQLENIEQYSSNGKLLTYFRKHVKDT
As for B1, the binding result (with Scc1-PK (S. cerevisiae); in assay [1]; in assay [2]) was “binds” throughout.

B2: Scc2 S1171C (protein, UniProt Q04002 1-1493)
chain: MSYPGKDKNIPGRIIEALEDLPLSYLVPKDGLAALVNAPMRVSLPFDKTIFTSADDGRDVNINVLGTANSTTSSIKNEAEKERLVFKRPSNFTSSANSVDYVPTNFLEGLSPLAQSVLSTHKGLNDSINIEKKSEIVSRPEAKHKLESVTSNAGNLSFNDNSSNKKTKTSTGVTMTQANLAEQYLNDLKNILDIVGFDQNSAEIGNIEYWLQLPNKKFVLTTNCLTKLQMTIKNITDNPQLSNSIEITWLLRLLDVMVCNIKFSKSSLKMGLDDSMLRYIALLSTIVLFNIFLLGKNDSNLHRESYIMEPVNFLSDLIESLKILTIEYGSLKIEFDTFQEALELLPKYIRNGPFLDDNVTAKLVYIFSDLLMNNDIEATTNIQFQSFWDNVKRISSDILVSLFGSFDQQRGFIIEELLSHIEKLPTKRIQKKLRKVGNQNIYITDFTFTLMSMLENINCYSFCNQMKDIAPENIDLLKNEYKKQEEFLFNIVEHINDTILERFFKNPSALRYVIDNFVQDLLLLISSPQWPVTEKILSSLLKRLLSVYSPSMQVSANIETICLQLIGNIGSTIFDIKCSTRDHEDNNLIKMINYPETLPHFFKSFEECIAYNETIKCRRSATRFLWNLRLGTILILEEYTKDAKEQIITVDNELKKILEQIKDGGLGPELENREADFSTIKLDYFSILHAFELLNLYDPYLKLILSLLAKDKIKLRSTAIKCLSMLASKDKVILSNPMVKETIHRRLNDSSASVKDAILDLVSINSSYFEFYQQINNNYNDDSIMVRKHVLRINEKMYDETNDIVTKVYVIARILMKIEDEEDNIIDMARLILLNRWILKVHEVLDQPEKLKEISSSVLLVMSRVAIMNEKCSQLFDLFLNFYLLNKEAHSKEAYDKITHVLTILTDFLVQKIVELNSDDTNEKNSIVDKQNFLNLLAKFADSTVSFLTKDHITALYPYMVSDEKSDFHYYILQVFRCTFEKLANFKQKFLYDLETTLLSRLPKMNVREIDEAMPLIWSVATHRHDTARVAKACSSCLSHLHPYINKANNEEAAIVVDGKLQRLIYLSTGFARFCFPKPSNDKIAFLQEGETLYEHITKCLLVLSKDKITHVIRRVAVKNLTKLCGNHPKLFNSRHVLHLLDKEFQSDQLDIKLVILESLYDLFLLEERKCVRNTGVNSTLSSNSILKKKLLKTNRVEFANDGVCSALATRFLDNILQLCLLRDLKNSLVAIRLLKLILKFGYTNPSHSIPTVIALFASTSQYIRHVAYELLEDLFEKYETLVFSSLSRGVTKAIHYSIHTDEKYYYKHDHFLSLLEKLCGTGKKNGPKFFKVLKRIMQSYLDDITDLTSTNSSVQKSIFVLCTNISNITFVSQYDLVSLLKTIDLTTDRLKEVIMDEIGDNVSSLSVSEEKLSGIILIQLSLQDLGTYLLHLYGLRDDVLLLDIVEESELKNKQLPAKKPDISKFSAQLENIEQYSSNGKLLTYFRKHVKDT
As to B2, in assay [2], the binding entry is recorded as “binds”.
